Reference: article PMC4336329 (PLoS ONE, 2015)
Among all 310,000 compounds or so, about 14,000 (4.5%) showed an effect of 50% or more. Effects have a minus sign here. The list shows a part of the results.

These compounds were tested against human ether-à-go-go-related gene (hERG) potassium channel (human, UniProt Q12809) (assay: primary screen, population patch clamp on CHO cells stably expressing hERG).
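Further: peak tail current of the secondary pulse compared with the same well before compound.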

human ether-à-go-go-related gene (hERG) potassium channel, sequence (Q12809 whole entry, looked up): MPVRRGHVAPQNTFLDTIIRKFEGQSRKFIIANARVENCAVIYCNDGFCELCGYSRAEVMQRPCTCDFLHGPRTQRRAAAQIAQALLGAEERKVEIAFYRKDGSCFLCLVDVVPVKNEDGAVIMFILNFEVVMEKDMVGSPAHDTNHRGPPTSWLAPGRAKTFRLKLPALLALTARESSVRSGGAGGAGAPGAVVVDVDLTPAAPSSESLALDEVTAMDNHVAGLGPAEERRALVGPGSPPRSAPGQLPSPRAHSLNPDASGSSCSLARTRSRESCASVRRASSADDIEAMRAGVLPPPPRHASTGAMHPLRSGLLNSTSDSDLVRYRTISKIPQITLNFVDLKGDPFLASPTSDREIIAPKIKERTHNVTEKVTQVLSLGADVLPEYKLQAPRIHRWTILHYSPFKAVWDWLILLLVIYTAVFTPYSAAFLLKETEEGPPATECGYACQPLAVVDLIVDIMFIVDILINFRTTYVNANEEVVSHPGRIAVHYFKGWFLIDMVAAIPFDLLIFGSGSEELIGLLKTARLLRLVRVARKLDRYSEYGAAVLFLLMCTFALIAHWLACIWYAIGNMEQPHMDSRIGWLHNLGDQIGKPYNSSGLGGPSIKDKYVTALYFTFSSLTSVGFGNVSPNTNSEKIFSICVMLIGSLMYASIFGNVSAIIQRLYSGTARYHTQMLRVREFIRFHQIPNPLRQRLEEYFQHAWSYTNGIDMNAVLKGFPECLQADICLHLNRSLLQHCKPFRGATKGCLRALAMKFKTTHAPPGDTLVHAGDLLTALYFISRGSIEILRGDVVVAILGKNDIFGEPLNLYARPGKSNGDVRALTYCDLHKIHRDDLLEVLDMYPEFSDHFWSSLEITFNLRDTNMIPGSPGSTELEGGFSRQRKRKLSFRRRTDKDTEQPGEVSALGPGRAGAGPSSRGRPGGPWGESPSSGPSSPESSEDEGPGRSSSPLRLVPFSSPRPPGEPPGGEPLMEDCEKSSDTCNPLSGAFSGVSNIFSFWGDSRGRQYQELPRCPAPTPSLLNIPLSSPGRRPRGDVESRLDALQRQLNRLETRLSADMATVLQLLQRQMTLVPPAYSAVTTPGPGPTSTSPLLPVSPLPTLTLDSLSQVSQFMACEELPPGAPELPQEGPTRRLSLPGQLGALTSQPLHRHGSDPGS

First: COc1ccccc1N1CCN(CC(=O)c2c(C)[nH]c3ccccc23)CC1
Second: COc1cccc2c(O)c(-c3ccccc3)c(=O)[nH]c12
The “hERG current change (%, negative = inhibition) at 10uM” value of the first is lower: -38.6% for the first, 16.9% for the second.

First: Cc1ccc(S(=O)(=O)N(C)C)cc1NC(=O)Nc1c(-c2ccccc2)noc1C
Second: CC(C)(C)N(NC(=O)Nc1ccc(Cl)c(Cl)c1)C(=O)c1ccccc1
The “hERG current change (%, negative = inhibition) at 10uM” value of the first is higher: 6.72% for the first, 5.65% for the second.

Compared with `COc1cccc(CNC(=O)CCNC(=O)c2ccco2)c1`, `COc1ccc(CCNC(=O)/C=C/c2ccco2)cc1` is lower in “hERG current change (%, negative = inhibition) at 10uM” value: 5.96% for the first, -3.43% for the second.

Going from `CCn1c(C2CCN(Cc3ccccc3)CC2)n[nH]c1=S` to `CCOC(=O)C1(S(=O)(=O)c2ccccc2)CCN(Cc2ccccc2)CC1`, the “hERG current change (%, negative = inhibition) at 10uM” value falls from -17.3% to -25.3%.

Compared with `Cc1cc(NC2CCCC2)n2ncc(-c3ccccc3)c2n1`, `Nc1ccc2oc(=O)c(-c3ccccc3)cc2c1` is higher in “hERG current change (%, negative = inhibition) at 10uM” value: 2.74% for the first, 6.08% for the second.

Compared with `Cc1c(C#N)c2ncn(CCCN(C)C)c(=O)c2n1-c1ccccc1`, `Cc1cccc2cc(CN(Cc3ccccc3)C(=S)NCCCN(C)C)c(=O)[nH]c12` is lower in “hERG current change (%, negative = inhibition) at 10uM” value: -6.21% for the first, -38% for the second.

Compared with `Cn1nc(C(=O)N2CCCc3ccccc32)c2ccccc2c1=O`, `O=Cc1cn(CC(=O)Nc2ccc3c(c2)OCO3)c2ccccc12` is higher in “hERG current change (%, negative = inhibition) at 10uM” value: 1.7% for the first, 15.8% for the second.

Compared with `COc1ccc(NC(=O)C2CCCN(c3c4c(nc5ncnn35)CCC4)C2)cc1` (stereo not drawn), `COc1ccc(CN2CCCC(C(=O)Nc3cccc(-n4cnnn4)c3)C2)c(C)c1C` (stereo not drawn) is lower in “hERG current change (%, negative = inhibition) at 10uM” value: -61.6% for the first, -62.7% for the second.

Compared with `COc1ccc(-n2cccc2/C=C/[N+](=O)[O-])cc1`, `COC(=O)CSc1nnc(-c2ccoc2C)n1-c1ccc(OC)cc1` is higher in “hERG current change (%, negative = inhibition) at 10uM” value: -50.4% for the first, -18.3% for the second.

Compared with `CN(C)c1ccc(CN(C(=O)c2ccco2)C2CCS(=O)(=O)C2)cc1` (stereo not drawn), `Cc1ccc(NC(=O)CSC2=C(C#N)C(c3ccco3)C3=C(CCCC3=O)N2)cc1` (stereo not drawn) is higher in “hERG current change (%, negative = inhibition) at 10uM” value: -10.6% for the first, 0.131% for the second.

Compared with `Cc1cc(NC(=O)CSc2nnc(-c3ccccc3)o2)no1`, `COCCn1c(SCC(=O)Nc2cc(C)on2)nnc1-c1ccccc1` is higher in “hERG current change (%, negative = inhibition) at 10uM” value: 2.11% for the first, 17.7% for the second.

First: CCC(=O)N1c2ccc(S(=O)(=O)CCC(=O)NCc3cccs3)cc2CC1C (stereo not drawn)
Second: O=C(Cc1c(Cl)cccc1Cl)N1CCN(S(=O)(=O)c2cccs2)CC1
The “hERG current change (%, negative = inhibition) at 10uM” value of the first is lower: -9.7% for the first, 10.9% for the second.

First: CC(=O)Nc1ccc(N2C(=O)C3C4CC(=O)C(c5ccccc54)C3C2=O)cc1 (stereo not drawn)
Second: CCOC(=O)c1ccc(NC(=O)Cn2nnc(-c3ccccc3)n2)cc1
The “hERG current change (%, negative = inhibition) at 10uM” value of the first is higher: 7.32% for the first, -10.6% for the second.

Going from `COc1cccc(CCC(=O)Nc2cccc(S(=O)(=O)N3CCCC3)c2)c1OC` to `CCOc1ccc(S(=O)(=O)N2CCC(C(=O)OCc3cccc(OC)c3OC)CC2)cc1`, the “hERG current change (%, negative = inhibition) at 10uM” value falls from -18.1% to -25.1%.

Compared with `COc1ccc(N=Cc2c(OC)ccc3ccccc23)cc1`, `COc1ccc(C2NCCc3c2[nH]c2ccccc32)cc1COc1ccc(F)cc1.Cl` (stereo not drawn) is lower in “hERG current change (%, negative = inhibition) at 10uM” value: 1.93% for the first, -45.5% for the second.

Compared with `COCCN(C(=S)Nc1ccccc1C)C(C)c1ccco1` (stereo not drawn), `CCN(CC)C(=O)c1c(-c2ccccc2)oc2ccc(OC)cc12` is lower in “hERG current change (%, negative = inhibition) at 10uM” value: -5.21% for the first, -25% for the second.

Going from `Cc1ccc(C(=O)OCc2nnc(-c3ccc(Br)cc3)o2)cc1` to `Cc1ccc(C(=O)c2oc3ccccc3c2NC(=O)c2cc(-c3ccccc3O)n[nH]2)cc1`, the “hERG current change (%, negative = inhibition) at 10uM” value rises from -11.8% to 11.8%.

Going from `O=C(Nc1nnc(S(=O)(=O)N2CCCCC2)s1)c1ccc(Cl)cc1` to `CCS(=O)(=O)N1CCC(C(=O)c2ccc(Cl)cc2)CC1`, the “hERG current change (%, negative = inhibition) at 10uM” value falls from 3.15% to -47.3%.

First: O=C(NCc1ccc(F)cc1)c1ccccc1OCc1ccccc1
Second: O=C(NC1CCSc2ccccc21)c1ccccc1Cl (stereo not drawn)
The “hERG current change (%, negative = inhibition) at 10uM” value of the first is lower: -8.06% for the first, 10.7% for the second.

Going from `CCOC(=O)C1CCCCN1Cc1cccc(C(F)(F)F)c1` (stereo not drawn) to `O=C(NC1CCCC1)C1CCN(C(=O)c2cccc(Cl)c2)CC1`, the “hERG current change (%, negative = inhibition) at 10uM” value falls from 6.43% to -6.41%.

Compared with `Cc1cccn2c(=O)c3cc(C(=O)NCc4ccco4)c(=N)n(C4CCCCC4)c3nc12`, `O=C(Nc1ccc2nc3n(c(=O)c2c1)CCCCC3)c1c(F)ccc([N+](=O)[O-])c1F` is higher in “hERG current change (%, negative = inhibition) at 10uM” value: -77.4% for the first, -13.9% for the second.

Compared with `COc1cccc(NC(=O)CCc2c(C)nn(-c3ccc(N4CCOCC4)nn3)c2C)c1`, `COc1cccc(-n2c(SCC(=O)OC(C)C)nnc2-c2cccnc2)c1` is lower in “hERG current change (%, negative = inhibition) at 10uM” value: 6.65% for the first, -0.33% for the second.

Compared with `Cc1c(N2C(=O)/C(=C3\C(=O)N(CC(=O)O)c4ccccc43)SC2=S)c(=O)n(-c2ccccc2)n1C`, `O=C(Nc1nccs1)c1cccc(N2C(=O)c3cccc4c([N+](=O)[O-])ccc(c34)C2=O)c1` is lower in “hERG current change (%, negative = inhibition) at 10uM” value: 10.3% for the first, -1.83% for the second.

Going from `COc1ccc(OCC(O)CN2CCN(c3ccc(Cl)cc3)CC2)cc1` (stereo not drawn) to `O=C(CN1CCCCC1)Nc1cc(Cl)ccc1Oc1ccccc1`, the “hERG current change (%, negative = inhibition) at 10uM” value rises from -30.7% to 12.5%.

First: CCOc1ccc2nc(N=Nc3c(O)[nH]c(=S)[nH]c3=O)sc2c1
Second: Cc1ccc2nc(NC(=O)C(NS(=O)(=O)c3cccc4nsnc34)C(C)C)sc2c1 (stereo not drawn)
The “hERG current change (%, negative = inhibition) at 10uM” value of the first is higher: 25.1% for the first, -3.95% for the second.

First: COc1ccccc1CCN1CCCC(CN(C)C(=O)c2ccc3nc[nH]c3c2)C1 (stereo not drawn)
Second: COc1ccc2c(c1)OC13CCN(C)CC1C2C(C(=O)c1ccc(F)cc1)C(=O)N3 (stereo not drawn)
The “hERG current change (%, negative = inhibition) at 10uM” value of the first is higher: 12.1% for the first, -34% for the second.

Compared with `COC(=O)Nc1nnc(-c2ccc(OC)cc2)s1`, `CCc1nnc(NC(=O)c2ccc(COc3ccccc3)o2)s1` is lower in “hERG current change (%, negative = inhibition) at 10uM” value: -2.67% for the first, -3.1% for the second.

First: C=CCn1c(O)c(/C=C2\C=NN=C2c2ccccc2)sc1=S
Second: C=CCn1c(SCC(C)=O)nnc1-c1cc(-c2ccccc2)sc1N
The “hERG current change (%, negative = inhibition) at 10uM” value of the first is higher: -0.284% for the first, -33.3% for the second.

Compared with `Cc1noc(C)c1COc1cccc(C(=O)NCc2cccc(Cl)c2)c1`, `CCN(C(=O)c1cc2cc(OC)ccc2oc1=O)c1ccccc1` is higher in “hERG current change (%, negative = inhibition) at 10uM” value: -9.21% for the first, 7.35% for the second.

Going from `Cc1ccoc1C(=O)NCCNC(=O)c1occc1C` to `Cc1ccc(NC(=O)CN(C)CC(=O)Nc2ccccc2C#N)cc1`, the “hERG current change (%, negative = inhibition) at 10uM” value falls from 4.85% to -11.3%.

First: CC(C)=CCCC1=CCC(/C=N/NC(N)=O)C(C)C1 (stereo not drawn)
Second: CC1=NNC(=O)C1CC(=O)N/N=C/C(C)=C/c1ccccc1 (stereo not drawn)
The “hERG current change (%, negative = inhibition) at 10uM” value of the first is lower: 9% for the first, 15.3% for the second.

Compared with `CCOC(=O)Nc1c(C(=O)OC)[nH]c2cc(OC)ccc12`, `COc1ccc(/C=N/OCC(=O)N2CCCC2)c(OC)c1` is higher in “hERG current change (%, negative = inhibition) at 10uM” value: -4.22% for the first, 2.87% for the second.

Compared with `CC(C)COc1ccccc1C(=O)NC(CO)C(=O)O` (stereo not drawn), `CCN(CC)C(=O)Oc1cc(=O)n(C)c2ccccc12` is lower in “hERG current change (%, negative = inhibition) at 10uM” value: 16% for the first, -2.13% for the second.

Going from `C[C@]1(C(=O)NCCN2CCOCC2)C=C[C@@H](Cc2ccccc2)N1C(=O)c1ccccc1` to `CCOC(=O)N1CCN(CCC(=O)Nc2ccc(C)cc2)CC1`, the “hERG current change (%, negative = inhibition) at 10uM” value falls from 5.92% to 4.65%.

Compared with `COc1cc(Cl)cc(C=O)c1OCC(=O)O`, `C=CCNC(=O)COC(=O)COc1ccc(Cl)cc1` is lower in “hERG current change (%, negative = inhibition) at 10uM” value: 18.7% for the first, 7.19% for the second.

Compared with `CCCC(c1nnnn1Cc1ccco1)N1CCN(C2CCCC2)CC1` (stereo not drawn), `Cc1sc2nc(C3CC3)nc(N3CCN(C(=O)c4ccc(Cl)cc4)CC3)c2c1C.Cl` is lower in “hERG current change (%, negative = inhibition) at 10uM” value: -31% for the first, -57.1% for the second.

Going from `COc1cc(OC)c(C(=O)N2CCN(c3ccccn3)CC2)cc1OC` to `COc1cc(NC(=O)C2CCN(c3cnccn3)CC2)cc(OC)c1OC`, the “hERG current change (%, negative = inhibition) at 10uM” value rises from 18.7% to 19.5%.

Going from `CCC1(C)Cc2c(sc3nc(SC)[nH]c(=S)c23)CO1` (stereo not drawn) to `Cc1onc(-c2c(Cl)cccc2Cl)c1C(=O)N=C(N)N1CC(C)OC(C)C1` (stereo not drawn), the “hERG current change (%, negative = inhibition) at 10uM” value rises from 12.6% to 13.2%.

First: COc1cccc(S(=O)(=O)Nc2ccc(C(=O)Nc3ccncc3)cc2)c1
Second: COc1cc(OC)cc(C(=O)Nc2ccc(C(=O)NCC3CCCO3)cc2)c1 (stereo not drawn)
The “hERG current change (%, negative = inhibition) at 10uM” value of the first is lower: 2.7% for the first, 5.04% for the second.

Compared with `O=Cc1ccc(C(=O)O)cc1`, `Cc1c(/C=C/C(=O)c2ccc(O)cc2)cnn1C` is lower in “hERG current change (%, negative = inhibition) at 10uM” value: 14% for the first, -3.92% for the second.

Compared with `CCC(C)OC(=O)C1=C(C)OC23OC(N)=C(C#N)C12C(=O)c1ccccc13` (stereo not drawn), `CC(OC(=O)CCCN=C1NS(=O)(=O)c2ccccc21)C(=O)Nc1ccccc1F` (stereo not drawn) is higher in “hERG current change (%, negative = inhibition) at 10uM” value: -22.9% for the first, -4.71% for the second.

First: O=C(O)CCc1ccc(-c2ccc(Cl)cc2)o1
Second: CCOc1cc(C2NC(=O)NC(O)(C(F)(F)F)C2C(=O)c2ccc(Cl)cc2)ccc1O (stereo not drawn)
The “hERG current change (%, negative = inhibition) at 10uM” value of the first is lower: -11.7% for the first, 0.624% for the second.

First: O=C(CSc1nnc2ccccn12)NNC(=O)c1ccc([N+](=O)[O-])cc1
Second: O=C(Nc1ccc(F)cc1F)NC1CCCc2ccccc21 (stereo not drawn)
The “hERG current change (%, negative = inhibition) at 10uM” value of the first is higher: -3.39% for the first, -25.9% for the second.

Compared with `O=S(=O)(Nc1ccccc1N1CCCCC1)c1cccs1`, `CCOc1cc(C(=S)N2CCOCC2)ccc1OS(=O)(=O)c1ccc(Br)cc1` is lower in “hERG current change (%, negative = inhibition) at 10uM” value: 1.55% for the first, -1.54% for the second.

First: Cn1nccc1C(=O)NC(=S)Nc1cc(Cl)cc(Cl)c1
Second: CON/C=C(\C=Nc1ccc(Cl)cc1)c1ncc(C(F)(F)F)cc1Cl
The “hERG current change (%, negative = inhibition) at 10uM” value of the first is higher: 4.84% for the first, 1.78% for the second.
